Results are given in words; binding and its absence hold for the method and conditions named. Binding seen in cells or lysates may run through a third protein. Some entries that bind do so weakly or less than the wild type. For some assays here: Tags and fused reporters may be left off the sequences shown.
Assays:
[1] = target: T1, GST-PDZK1 fusion protein (full length PDZK1) (UniProt Q5T2W1); experiment: pull-down; purified GST or GST fusion proteins on beads incubated with 1 mL HEK293 cell lysate, 4 °C, 3 h; washes in 10 mM HEPES, 50 mM NaCl, 5 mM EDTA, 0.1% Tween 20; western blot; only the target purified
T1 sequence: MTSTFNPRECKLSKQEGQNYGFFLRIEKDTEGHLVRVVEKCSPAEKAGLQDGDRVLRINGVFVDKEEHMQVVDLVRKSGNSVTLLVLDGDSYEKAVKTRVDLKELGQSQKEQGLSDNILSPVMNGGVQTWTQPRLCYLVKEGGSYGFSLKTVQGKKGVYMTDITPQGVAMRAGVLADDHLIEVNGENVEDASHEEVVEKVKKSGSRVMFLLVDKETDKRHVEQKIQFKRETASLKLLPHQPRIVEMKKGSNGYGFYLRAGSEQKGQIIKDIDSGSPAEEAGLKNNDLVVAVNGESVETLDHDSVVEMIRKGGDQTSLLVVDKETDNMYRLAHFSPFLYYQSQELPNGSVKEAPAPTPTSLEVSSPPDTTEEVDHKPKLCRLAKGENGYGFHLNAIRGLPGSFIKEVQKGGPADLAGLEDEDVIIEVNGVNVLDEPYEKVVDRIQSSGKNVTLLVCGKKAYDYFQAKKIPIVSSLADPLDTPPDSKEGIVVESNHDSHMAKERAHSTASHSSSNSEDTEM

[2] = target: T2, PDZK1, endogenous in MDA-MB-231 cells (human (endogenous in MDA-MB-231)) (UniProt Q5T2W1); experiment: co-IP; endogenous proteins of MDA-MB-231 cells; anti-EGFR antibody (Fig. 1F) or anti-PDZK1 antibody (Fig. 1G) coupled to affinity gel; IgG as control
T2 sequence: T1 sequence

binding [1] | binding [2] | Substance
binds |  | Epidermal growth factor receptor (EGFR), in lysates of HEK293 cells (from UniProt P00533 25-1210)
 | binds | EGFR, endogenous in MDA-MB-231 cells (from UniProt P00533 25-1210) (receptor)
